{"source": "ChEMBL document CHEMBL3627664", "about": "“Towards the evaluation in an animal disease model: Fluorinated 17β-HSD1 inhibitors showing strong activity towards both the human and the rat enzyme” (Eur J Med Chem, 2015)", "data": [{"target": "T1, Estradiol 17-beta-dehydrogenase 1 (Rattus norvegicus, UniProt P51657)", "T1 sequence (P51657 whole entry)": "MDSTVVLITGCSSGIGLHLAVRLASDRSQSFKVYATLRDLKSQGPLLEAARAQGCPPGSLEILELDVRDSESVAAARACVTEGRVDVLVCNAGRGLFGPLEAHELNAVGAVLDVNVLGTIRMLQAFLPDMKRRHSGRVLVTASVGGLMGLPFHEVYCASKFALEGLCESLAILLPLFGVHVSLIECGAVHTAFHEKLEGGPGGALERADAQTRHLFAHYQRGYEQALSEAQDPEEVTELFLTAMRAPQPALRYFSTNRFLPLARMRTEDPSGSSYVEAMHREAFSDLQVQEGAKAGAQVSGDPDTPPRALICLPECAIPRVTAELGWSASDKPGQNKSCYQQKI", "units": {"IC50": "nM"}, "values": [{"molecule": "O=C(c1ccc(-c2cccc(NS(=O)(=O)c3ccccc3OC(F)(F)F)c2)s1)c1c(F)ccc(O)c1F", "IC50": 80}, {"molecule": "O=C(c1ccc(-c2cccc(NS(=O)(=O)c3ccccc3C(F)(F)F)c2)s1)c1c(F)ccc(O)c1F", "IC50": 97}]}, {"target": "T2, 17-beta-hydroxysteroid dehydrogenase type 1 (Homo sapiens, UniProt P14061)", "T2 sequence (P14061 whole entry)": "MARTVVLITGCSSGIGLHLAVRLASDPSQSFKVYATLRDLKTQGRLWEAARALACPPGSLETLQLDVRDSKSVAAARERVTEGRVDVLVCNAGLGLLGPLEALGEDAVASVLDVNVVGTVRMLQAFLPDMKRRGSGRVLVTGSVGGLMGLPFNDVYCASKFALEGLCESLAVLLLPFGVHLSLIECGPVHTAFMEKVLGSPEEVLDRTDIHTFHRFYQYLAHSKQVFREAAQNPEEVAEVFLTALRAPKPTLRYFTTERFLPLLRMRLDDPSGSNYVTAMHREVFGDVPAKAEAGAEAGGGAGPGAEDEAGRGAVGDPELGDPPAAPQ", "units": {"IC50": "nM"}, "values": [{"molecule": "O=C(c1cccc(O)c1)c1ccc(-c2cccc(NS(=O)(=O)c3ccc([N+](=O)[O-])cc3)c2)s1", "IC50": 42}, {"molecule": "Cn1cnc(S(=O)(=O)Nc2cccc(-c3ccc(C(=O)c4c(F)ccc(O)c4F)s3)c2)c1", "IC50": 6}, {"molecule": "O=C(c1cccc(O)c1)c1ccc(-c2cccc(NS(=O)(=O)c3cccc([N+](=O)[O-])c3)c2)s1", "IC50": 47}, {"molecule": "Nc1ccc(-c2ccc(C(=O)c3cccc(O)c3)s2)cc1", "IC50": 145}, {"molecule": "Cc1cccc(S(=O)(=O)Nc2cccc(-c3ccc(C(=O)c4cccc(O)c4)s3)c2)c1", "IC50": 18}, {"molecule": "O=C(c1cccc(O)c1)c1ccc(-c2cccc(NS(=O)(=O)c3ccc(Br)cc3)c2)s1", "IC50": 50}, {"molecule": "O=C(c1cccc(O)c1)c1ccc(-c2cccc(NS(=O)(=O)c3ccccc3)c2)s1", "IC50": 21}, {"molecule": "CC(=O)Nc1cccc(S(=O)(=O)Nc2cccc(-c3ccc(C(=O)c4cccc(O)c4)s3)c2)c1", "IC50": 311}, {"molecule": "COc1ccc(S(=O)(=O)Nc2cccc(-c3ccc(C(=O)c4cccc(O)c4)s3)c2)c(F)c1", "IC50": 51}, {"molecule": "N#Cc1cccc(S(=O)(=O)Nc2ccc(-c3ccc(C(=O)c4cccc(O)c4)s3)cc2)c1", "IC50": 151}, {"molecule": "O=C(c1cccc(O)c1)c1ccc(-c2cccc(NS(=O)(=O)c3ccc(O)cc3F)c2)s1", "IC50": 112}, {"molecule": "O=C(c1cccc(O)c1)c1ccc(-c2cccc(NS(=O)(=O)c3cccc(O)c3)c2)s1", "IC50": 16}, {"molecule": "O=C(c1cccc(O)c1)c1ccc(-c2cccc(NS(=O)(=O)c3ccccc3[N+](=O)[O-])c2)s1", "IC50": 32}, {"molecule": "O=C(c1ccc(-c2cccc(NS(=O)(=O)c3ccccc3C(F)(F)F)c2)s1)c1c(F)ccc(O)c1F", "IC50": 2}, {"molecule": "O=C(c1cccc(O)c1)c1ccc(-c2cccc(NS(=O)(=O)c3cccs3)c2)s1", "IC50": 39}, {"molecule": "O=C(c1cccc(O)c1)c1ccc(-c2cccc(NS(=O)(=O)c3cc(F)c(Br)cc3F)c2)s1", "IC50": 109}, {"molecule": "O=C(c1cccc(O)c1)c1ccc(-c2ccc(NS(=O)(=O)c3ccccc3)cc2)s1", "IC50": 195}, {"molecule": "O=C(c1cccc(O)c1)c1ccc(-c2cccc(NS(=O)(=O)c3cccc(F)c3)c2)s1", "IC50": 38}, {"molecule": "O=C(c1cccc(O)c1)c1ccc(-c2cccc(NS(=O)(=O)c3ccc(F)cc3)c2)s1", "IC50": 30}, {"molecule": "O=C(c1cccc(O)c1)c1ccc(-c2cccc(NS(=O)(=O)c3ccccc3F)c2)s1", "IC50": 50}, {"molecule": "CN(C(=O)c1cccc(O)c1)c1cccc(-c2ccc(C(=O)c3cccc(O)c3)s2)c1", "IC50": 71}, {"molecule": "Cc1cc(NS(=O)(=O)C2CC2)cc(-c2ccc(C(=O)c3c(F)ccc(O)c3F)s2)c1", "IC50": 5}, {"molecule": "O=C(c1cccc(O)c1)c1ccc(-c2cccc(NS(=O)(=O)c3cccc([N+](=O)[O-])c3[N+](=O)[O-])c2)s1", "IC50": 182}]}, {"target": "T3, Estradiol 17-beta-dehydrogenase 2 (Mus musculus, UniProt P51658)", "T3 sequence (P51658 whole entry)": "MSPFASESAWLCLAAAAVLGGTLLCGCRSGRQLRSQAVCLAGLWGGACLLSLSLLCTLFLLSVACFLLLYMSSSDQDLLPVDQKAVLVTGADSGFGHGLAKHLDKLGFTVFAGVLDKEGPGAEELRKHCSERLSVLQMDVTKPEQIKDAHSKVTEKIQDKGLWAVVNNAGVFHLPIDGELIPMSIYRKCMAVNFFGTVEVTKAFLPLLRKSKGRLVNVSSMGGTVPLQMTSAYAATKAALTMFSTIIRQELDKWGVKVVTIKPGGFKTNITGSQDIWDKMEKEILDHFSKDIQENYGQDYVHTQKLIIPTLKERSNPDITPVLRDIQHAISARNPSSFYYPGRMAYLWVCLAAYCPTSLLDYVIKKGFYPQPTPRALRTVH", "units": {"IC50": "nM"}, "values": [{"molecule": "Cc1cc(-c2ccc(C(=O)c3c(F)ccc(O)c3F)s2)cc(N(C)S(=O)(=O)C2CC2)c1", "IC50": 129}]}, {"target": "T4, Estradiol 17-beta-dehydrogenase 2 (Rattus norvegicus, UniProt Q62730)", "T4 sequence (Q62730 whole entry)": "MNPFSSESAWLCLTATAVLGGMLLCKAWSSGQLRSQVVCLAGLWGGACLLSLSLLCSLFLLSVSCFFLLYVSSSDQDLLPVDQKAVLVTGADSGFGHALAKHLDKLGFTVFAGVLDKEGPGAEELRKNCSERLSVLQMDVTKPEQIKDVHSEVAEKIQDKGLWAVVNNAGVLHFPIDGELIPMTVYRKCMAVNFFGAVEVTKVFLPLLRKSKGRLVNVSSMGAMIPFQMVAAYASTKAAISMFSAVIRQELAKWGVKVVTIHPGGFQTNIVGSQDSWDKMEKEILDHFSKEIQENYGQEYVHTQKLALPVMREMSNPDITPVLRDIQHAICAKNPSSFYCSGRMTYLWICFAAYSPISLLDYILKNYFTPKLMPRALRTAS", "units": {"IC50": "nM"}, "values": [{"molecule": "O=C(c1ccc(-c2cccc(NS(=O)(=O)c3ccccc3OC(F)(F)F)c2)s1)c1c(F)ccc(O)c1F", "IC50": 38}, {"molecule": "O=C(c1ccc(-c2cccc(NS(=O)(=O)c3ccccc3C(F)(F)F)c2)s1)c1c(F)ccc(O)c1F", "IC50": 49}]}]}
